These results are taken from the supplement of paper PMC7826260.

Holding throughout (assay): uncleaved DNA left, log2 of reads against the no-enzyme library (log2 ratio); higher = less cleavage (more negative = more Rep cleavage of the k-mer); sequences stand for … in CTCGTCCG…ACCGGAGA
In experiment [1] the test system is T1, Rep nickase domain of Muscovy duck circovirus.
T1 sequence (Rep 1-111, printed without the tag): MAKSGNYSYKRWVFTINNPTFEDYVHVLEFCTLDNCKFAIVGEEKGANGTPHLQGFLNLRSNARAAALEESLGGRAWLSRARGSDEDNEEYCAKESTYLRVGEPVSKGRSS
On the procedure:
(§1)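 A pool of 90-nt single-stranded DNAs with seven random bases just before the constant AC of the nick site (name = the seven bases) was cut by 3 µM recombinant His6-SUMO-tagged Rep nickase domain (300 nM DNA, 50 mM HEPES pH 8.0, 50 mM NaCl, 1 mM MnCl2, 1 h, 37 °C, three replicates). Uncut DNA was amplified and sequenced.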

In experiment [2] the test system is T2, Rep nickase domain of banana bunchy top virus.
T2 sequence (Rep 1-94, printed without the tag): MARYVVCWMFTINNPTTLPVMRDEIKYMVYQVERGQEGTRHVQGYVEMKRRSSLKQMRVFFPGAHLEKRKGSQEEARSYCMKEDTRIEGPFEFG
As to the method:
as §1

Experiment [3] has as its system T3, Rep nickase domain of cabbage leaf curl virus.
T3 sequence (Rep 1-116, printed without the tag): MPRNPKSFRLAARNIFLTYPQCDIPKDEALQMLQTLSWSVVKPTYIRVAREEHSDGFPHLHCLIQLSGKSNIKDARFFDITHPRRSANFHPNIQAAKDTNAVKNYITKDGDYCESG
On the procedure:
as §1

The subject of experiment [4] is T4, Rep nickase domain of chickpea chlorotic dwarf virus.
T4 sequence (Rep 1-124, printed without the tag): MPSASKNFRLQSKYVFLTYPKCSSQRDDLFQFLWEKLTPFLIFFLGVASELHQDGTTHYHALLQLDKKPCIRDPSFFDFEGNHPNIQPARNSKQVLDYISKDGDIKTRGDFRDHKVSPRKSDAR
As to the method: as §1
The subject of experiment [5] is T5, Rep nickase domain of faba bean necrotic yellows virus.
T5 sequence (Rep 1-98, printed without the tag): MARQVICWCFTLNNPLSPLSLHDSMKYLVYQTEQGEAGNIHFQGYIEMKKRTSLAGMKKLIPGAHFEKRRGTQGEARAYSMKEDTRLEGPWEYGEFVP
As to the method:
as §1

Experiment [6] deals with T6, Rep nickase domain of maize striate mosaic virus.
T6 sequence (Rep 1-117, printed without the tag): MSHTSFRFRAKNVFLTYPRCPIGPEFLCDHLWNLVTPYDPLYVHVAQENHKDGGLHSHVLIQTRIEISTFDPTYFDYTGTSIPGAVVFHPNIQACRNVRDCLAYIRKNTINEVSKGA
On the procedure:
as §1

Experiment [7] relates to T7, Rep nickase domain of porcine circovirus 2.
T7 sequence (Rep 2-116, printed without the tag): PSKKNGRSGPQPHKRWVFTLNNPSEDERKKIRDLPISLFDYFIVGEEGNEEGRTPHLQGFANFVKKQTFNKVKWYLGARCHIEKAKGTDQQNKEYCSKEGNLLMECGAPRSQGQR
As to the method: as §1
In experiment [8] the test system is T8, Rep nickase domain of tomato golden mosaic virus.
T8 sequence (Rep 1-124, printed without the tag): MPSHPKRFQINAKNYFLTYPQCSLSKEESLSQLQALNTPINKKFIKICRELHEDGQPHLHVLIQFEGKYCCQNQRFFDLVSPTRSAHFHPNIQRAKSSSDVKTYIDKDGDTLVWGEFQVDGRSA
On the procedure:
as §1

For experiment [9], the system named is T9, Rep nickase domain of tomato yellow leaf curl virus.
T9 sequence (Rep 1-136, printed without the tag): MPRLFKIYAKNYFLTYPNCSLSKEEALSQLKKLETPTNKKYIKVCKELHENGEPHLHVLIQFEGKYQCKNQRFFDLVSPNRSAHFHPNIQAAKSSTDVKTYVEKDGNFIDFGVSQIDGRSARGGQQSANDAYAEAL
On the procedure: as §1
The test system of experiment [10] is T10, Rep nickase domain of wheat dwarf virus.
T10 sequence (Rep 1-137, printed without the tag): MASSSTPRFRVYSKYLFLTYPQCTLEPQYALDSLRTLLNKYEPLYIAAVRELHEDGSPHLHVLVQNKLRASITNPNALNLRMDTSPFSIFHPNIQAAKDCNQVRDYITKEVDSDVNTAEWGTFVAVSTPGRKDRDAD
On the procedure:
as §1

The list shows a part of the results. One pool of 16,384 single-stranded DNAs met each Rep nickase domain in vitro for 1 h at 37 °C with 3 µM enzyme; only the middle of the 90-letter strands is printed. Uncut reads are compared with the no-enzyme pool on a log2 scale; strong cutting gives strongly negative numbers. There is no active / inactive call. Shares of all reads are compared; uncut strands gain when others are lost, and binding without cutting may add a little.

For GACGGAT, the “uncleaved DNA left (log2)” value in experiment [1] was -0.0476; in experiment [2], -0.0928; in experiment [3], 0.184; in [4], 1.35; in [5], -0.139; in experiment [6], 1.75. In addition, the “uncleaved DNA left (log2)” value in experiment [7] is 0.0123; in experiment [8], 0.115; in experiment [9], -0.129; in experiment [10], 0.0152.

With CGTTCTC, the “uncleaved DNA left (log2)” value in experiment [1] is -0.0822; in experiment [2] it was 0.00457; in [3], 0.0675; in experiment [4], 0.0766; in experiment [5], -0.0999; in [6] it was -0.305. Besides, the “uncleaved DNA left (log2)” value in experiment [7] is -0.0749; in experiment [8], -0.161; in experiment [9] it was -0.0921; in [10], -0.0158.

In the case of GCGCTTT, the “uncleaved DNA left (log2)” value in experiment [1] was -0.109; in experiment [2], -0.137; in experiment [3], -0.113; in [4], -0.702; in experiment [5], -0.105; in experiment [6] it was 0.0544. Also, the “uncleaved DNA left (log2)” value is -0.138 in experiment [7], -0.164 in [8], -0.0613 in experiment [9] and -0.0349 in experiment [10].

GTTCCCG: the “uncleaved DNA left (log2)” value is -1.05 in experiment [1]; -0.000474 in [2]; -0.283 in experiment [3]; -0.56 in [4]; -0.0574 in [5]; -0.62 in experiment [6]. Further, the “uncleaved DNA left (log2)” value in [7] was -1.91; in experiment [8], 0.0483; in experiment [9], -0.0408; in experiment [10] it was 0.00851.

CTCAGCG: the “uncleaved DNA left (log2)” value in [1] was -0.0579; in experiment [2], -0.0395; in experiment [3], -1; in [4], 0.258; in experiment [5], 0.00164; in experiment [6], -0.906. The “uncleaved DNA left (log2)” value in [7] was 0.0385; in experiment [8] it was -0.213; in experiment [9], -0.11; in experiment [10], -0.14.

Turning to GGTAAAG, the “uncleaved DNA left (log2)” value in experiment [1] was 0.0885; in [2], 0.092; in experiment [3] it was 0.205; in experiment [4], 0.627; in experiment [5], 0.0632; in experiment [6] it was -0.0324. In addition, the “uncleaved DNA left (log2)” value in experiment [7] is 0.271; in experiment [8] it was -0.000753; in experiment [9], 0.0806; in experiment [10], 0.0928.

TCTGCGA: the “uncleaved DNA left (log2)” value in [1] was 0.0308; in [2], -0.0066; in experiment [3], -0.695; in experiment [4] it was 0.413; in experiment [5], 0.0238; in experiment [6], -0.806. In addition, the “uncleaved DNA left (log2)” value in experiment [7] is 0.0843; in [8] it was -0.104; in [9], -0.00575; in experiment [10], 0.0289.

As for AGAAGTA, the “uncleaved DNA left (log2)” value is 0.0746 in experiment [1]; 0.0994 in experiment [2]; 0.0838 in experiment [3]; -0.437 in [4]; 0.179 in experiment [5]; -0.223 in experiment [6]. Further, the “uncleaved DNA left (log2)” value in experiment [7] is -0.125; in experiment [8] it was 0.151; in experiment [9], 0.0785; in experiment [10], 0.114.

As to TACGGCC, the “uncleaved DNA left (log2)” value was -0.0418 in [1]; -0.104 in experiment [2]; -0.141 in experiment [3]; -0.182 in experiment [4]; -0.11 in [5]; -0.452 in [6]. Moreover, the “uncleaved DNA left (log2)” value was -0.0298 in [7], -0.0364 in experiment [8], -0.0887 in experiment [9] and -0.0419 in experiment [10].

In the case of CTGTTAC, the “uncleaved DNA left (log2)” value in [1] is -2.61; in experiment [2], -0.116; in experiment [3], -0.642; in experiment [4], -2.18; in experiment [5] it was -0.0237; in experiment [6], -0.531. In addition, the “uncleaved DNA left (log2)” value was -2.94 in [7], -0.129 in experiment [8], -0.0961 in [9] and -0.293 in [10].

Turning to GATATAG, the “uncleaved DNA left (log2)” value in experiment [1] is 0.13; in [2], 0.0672; in [3] it was -0.592; in experiment [4], -0.448; in experiment [5] it was 0.0346; in experiment [6] it was -1.06. Moreover, the “uncleaved DNA left (log2)” value in [7] worked out at 0.107; in experiment [8] it was 0.0224; in experiment [9] it was 0.15; in experiment [10], 0.000216.

Take CCGTATC: the “uncleaved DNA left (log2)” value in [1] was -0.109; in experiment [2] it was -0.187; in experiment [3], 0.0218; in experiment [4] it was -0.214; in experiment [5], -0.0651; in experiment [6], -0.511. Also, the “uncleaved DNA left (log2)” value in experiment [7] was -0.268; in [8] it was -0.0796; in experiment [9], -0.0718; in [10], -0.235.

As for TCAAGAA, the “uncleaved DNA left (log2)” value is 0.0126 in [1]; -0.0352 in experiment [2]; 0.104 in experiment [3]; 0.0783 in experiment [4]; 0.0199 in [5]; -0.406 in experiment [6]. Moreover, the “uncleaved DNA left (log2)” value is 0.018 in experiment [7], -0.0206 in [8], 0.0216 in experiment [9] and -0.025 in experiment [10].

As for CTCGCTC, the “uncleaved DNA left (log2)” value was -0.0602 in experiment [1]; -0.0615 in experiment [2]; -0.138 in [3]; -0.572 in [4]; -0.169 in experiment [5]; -0.734 in [6]. Moreover, the “uncleaved DNA left (log2)” value was -0.179 in experiment [7], -0.133 in experiment [8], 0.0197 in experiment [9] and 0.00624 in [10].

As for TGTGATG, the “uncleaved DNA left (log2)” value in [1] was 0.0898; in experiment [2], -0.0697; in experiment [3], -0.139; in experiment [4], 0.23; in experiment [5] it was 0.0795; in experiment [6], 0.267. Moreover, the “uncleaved DNA left (log2)” value in experiment [7] was 0.128; in [8] it was 0.145; in experiment [9], -0.0601; in experiment [10], -0.00917.
